Measurements as given in PubChem BioAssay AID1963576 (National Center for Advancing Translational Sciences (NCATS), 2024).
About 60 (0.1%) of roughly 46,000 compounds were called active. Another 3% or so got no clear call; they are omitted. Calls follow the shape of the dose curve; as a rule, active = well fitted inhibition curve with a large enough effect; inconclusive = small, poorly fitted or top-dose-only effect; inactive = no such curve, though single readings can be large or run the other way. Some of the results follow.

assay: Primary qHTS assay for Inhibitors of ovarian cancer metastasis using an organotypic tumor microenvironment (TME) model.; also: nearly all actives have a fitted effect of over 65% in size;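 as to activity change, negative = inhibition: plate controls were DMSO wells for no effect and tomatine positive control wells for full effect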; conditions: SKOV3ip1-GFP adhesion/invasion on 3D omental model, fluorescence; series mostly up to 45.8 µM; activity change, negative = inhibition: at the top concentration
Procedure, shortened: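 Primary human omental fibroblast/mesothelial 3D culture pre-formed 48 h. SKOV3ip1-GFP cells added with compounds (0.36-46 umol/L), incubated 2 h RT/16 h 37 C, fixed; GFP cells quantified at 488/509 nm.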

Activity change, negative = inhibition, inactive:
COc1ccccc1CNC(=O)CCc1c(C)c2cc3c(C)c(C)oc3cc2oc1=O 3.21%
Cc1cc(C)n(-c2nc(C)c(C)c(=O)n2CC(=O)Nc2ccc([N+](=O)[O-])cc2)n1 0.224%
Nc1nc2c(ncn2COC(CO)CO)c(=O)[nH]1 6.82%
COCC(=O)n1nc(-c2ccco2)nc1NCc1ccccc1Cl -4.82%
Cc1ccc(-n2ncc3c(NCCCN4CCOCC4)ncnc32)cc1C -1.43%
Cc1c(C(=O)Nc2cccc(C(F)(F)F)c2)sc2nc[nH]c(=O)c12 -5.08%
Cc1ccccc1Nc1c(-c2c(F)cccc2Cl)nc2ccc(Br)cn12 4.52%
COCCNC(=O)C1CCN(Cc2cc3ccccc3n2Cc2ccc(C)cc2)CC1 -5.92%
COCCn1c(CNC(=O)c2cccc(C)c2)nc2cccnc21 -4.22%
COc1ccc(NC(=O)c2ccc(NC(=O)N3CCSc4ncccc43)cc2)cc1 -16.1%
c1ccc2c(CCNc3ccc(Nc4ccncc4)cc3)c[nH]c2c1 -25.9%
COCCCNC(=O)Cn1c(=O)n(-c2ccc(C)c(C)c2)c(=O)c2c3c(sc21)CCCCC3 30.8%
O=C(COc1ccc(F)cc1)Nc1nnc(S(=O)(=O)N2CCCC2)s1 -1.6%
COc1ccccc1CNC(=O)c1ccc2[nH]c(C)c(C)c2c1 -0.537%
NCCCCCC(=O)O 8.99%
Cc1cccc(N(C)S(=O)(=O)c2nnc(NC(=O)c3cccs3)s2)c1 -3.66%
CCOC(=O)c1cccc(NC(=O)Cn2c(=O)c3cccn3c3ccccc32)c1 -0.571%
COCCNC(=O)c1sc2ncccc2c1-n1c(C)ccc1C -10.2%
COc1cc(NC(=O)C2CCN(S(=O)(=O)Cc3ccccc3)CC2)c(OC)cc1Cl -0.377%
O=C(c1ccc2c(c1)OCO2)c1cn(Cc2ccc(Cl)cc2)c2ccc(F)cc2c1=O 0.355%
COc1cccc2c(C)cc3nnc(SCC(=O)Nc4ccc(C)cc4)n3c12 -20.7%
O=C(Cn1ncc2c1-c1ccccc1OC2)N1CCN(c2ccccc2)CC1 1.97%
COCCNC(=O)CN1C(=O)c2cccnc2Sc2ccccc21 -12.5%
CC(C)(C)OC(=O)N1CCC(c2c(C(=O)N3CCN(c4ccccn4)CC3)cnn2-c2ccc(F)cc2)CC1 4.63%
COc1ccc2c(c1)c(=O)c(S(=O)(=O)c1ccc(F)cc1)cn2Cc1ccccc1Cl 0.778%
CCN(CC)S(=O)(=O)c1ccc(C(=O)NCCSc2c(-c3ccc(F)cc3)[nH]c3ccccc23)cc1 -13.4%
CC1CCC(NC(=O)c2ccc(CS(=O)(=O)c3ccc(Cl)cc3)o2)CC1 (stereo not drawn) -8.09%
CCCCOc1ccc(C(=O)N2CCCCC2CCN2CCOCC2)cc1 (stereo not drawn) -25.2%
Cc1ccc2c(c1)C(=O)[C@]1(O)CCN(c3ccccc3)C1=N2 11.9%
CC(C)OCCCNC(=O)CN1C(=O)c2cccnc2Sc2ccccc21 6.45%
CCCOc1cccc(C(=O)N(Cc2sccc2C)C2CCS(=O)(=O)C2)c1 (stereo not drawn) -9.42%
COc1ccc(CNC(=O)c2cnc(N(C)C)nc2)cc1 -3.5%
CCC(=O)Nc1ccc2nc(SCCOc3ccc(C)cc3OC)sc2c1 4.46%
CCn1c(=O)cc(OCC(=O)N2CCN(c3ccc(C)cc3)C(C)C2)c2ccccc21 (stereo not drawn) -3.69%
CC(=O)c1ccc(NC(=O)CSc2nc(-c3ccc(C)cc3)nc3c2c(=O)n(C)c(=O)n3C)cc1 -7.27%
COc1ccc2c(Oc3ccc(NC(=O)c4c(C)n(CC(C)(C)O)n(-c5ccccc5)c4=O)nc3)ccnc2c1 -10.6%
Cc1cccn2cc(-c3cccc(NC(=O)C(C)C)c3)nc12 0.159%
COc1c(C)cnc(Cn2cnc3c(Cl)nc(N)nc32)c1C 12.7%
Cn1c(=O)n(Cc2ccccc2)c(=O)c2c1nc1n2CCN1c1ccccc1 -9.34%
O=C(Cn1cc(SCc2c(F)cccc2Cl)c2ccccc21)N1CCCCC1 6.33%
CCCN1C(=O)c2[nH]nc(-c3ccccc3)c2C1c1cccc(O)c1 (stereo not drawn) 9.34%
CCOc1ccc(-c2nnc(SCC(=O)NCc3ccccc3Cl)o2)cc1 -8.38%
COCc1cc(C)nc2c1C(=O)NC(c1ccc(C)cc1)N2Cc1ccccc1 (stereo not drawn) -4.57%
O=C(CSc1cn(CC(=O)N2CCCCC2)c2ccccc12)NCc1ccccc1 -8.98%
COc1ccc2c(c1)CCc1sc(NC(=O)c3cccc(Br)c3)nc1-2 6.27%
COc1ccccc1NC(=O)CSC1=Nc2ccccc2C2=NC(Cc3ccccc3)C(=O)N12 (stereo not drawn) -19%
CCOc1ccc(S(=O)(=O)N2CCN(c3cccc(C(F)(F)F)c3)CC2)cc1OCC -7.46%
CCOc1ccc(CNC(=O)C2CCN(c3nnc(-n4c(C)ccc4C)s3)CC2)cc1 14.5%
Cc1ccc(-c2onc(C)c2C)cc1S(=O)(=O)NCc1ccc(N(C)C)cc1 8.1%
CC=CC(=O)N(CC)c1ccccc1C 5.4%
CCOC(=O)N1CCc2c(sc3c2c(=O)n(Cc2ccccc2)c(=O)n3Cc2cccc(C)c2)C1 -1.38%
CCc1nc2c(cnn2-c2ccc(C)cc2)c(=O)n1Cc1ccccc1 22.6%
O=C(C1CC1)N1CC[C@@H](Cn2c(-c3ccc(-c4ccc5occc5c4)cc3)nc3cnccc32)C1 -9.37%
COc1cccc(Cn2c(=O)n(-c3cccc(Cl)c3)c(=O)c3c4c(sc32)CN(C(C)=O)CC4)c1 -0.483%
O=C(NCc1ccccc1)C(=O)NCC(c1ccco1)S(=O)(=O)c1ccc(Cl)cc1 (stereo not drawn) -10.8%
COc1ccc(NC(=O)c2cc(C)nc3c2c(C)nn3-c2ccc(C)cc2)cc1OC -22.2%
CC(=O)c1ccc(NC(=O)CCc2c(C)nc3c(c2C)c(=O)n(C)c(=O)n3C)cc1 14.1%
CSc1ncc(Cl)c(C(=O)Nc2ccc(S(=O)(=O)Nc3nccc(C)n3)cc2)n1 6.58%
Cc1c2cnn(CC(=O)N3CCN(c4ccccc4)CC3)c(=O)c2c(C)n1Cc1ccccc1Cl 3.23%
CC1=C(C)C(=O)C(C(CCCCCC(=O)O)c2ccccc2)=C(C)C1=O (stereo not drawn) 1.66%
COc1ccc(CCNC(=O)c2cc3n(n2)CCCN(Cc2ccc(C)cc2)C3=O)cc1OC 7.61%
Cc1cc(C)cc(-n2cnc3cc(C(=O)NC4CCCCCC4)ccc32)c1 0.87%
Cc1ccc(CCNC(=O)c2ccc3[nH]c(C)c(C)c3c2)cc1 8.75%
O=S(=O)(NCCS(=O)(=O)N1CCN(c2cccc(Cl)c2)CC1)c1ccc(F)cc1 -5.06%
CCOc1ccc(C2=NC(c3cccs3)=Nc3ccc(CC)cc3N2)cc1OCC 9.63%
Cc1[nH]c2ccc(Br)cc2c1CCNC(=O)c1cc2ccccc2oc1=O -6.4%
COC(=O)CN1C(=O)C(C)(C)c2cc(S(=O)(=O)Nc3ccc(Br)cc3F)ccc21 -12.9%
O=C(NCc1ccccc1F)c1sc2ncccc2c1-n1cccc1 4.75%
CC(=O)c1cccc(-n2c(=O)c3c4c(sc3n(Cc3cccc(C)c3)c2=O)CN(C(C)=O)CC4)c1 3.29%
Cc1cccc(NC(=O)CN2C(=O)C(c3ccccc3)=NC23CCC(C)CC3)c1 (stereo not drawn) 1.81%
Cc1cc(C)n(CCc2nc3c4ccccc4nc(N4CCN(c5cccc(C)c5C)CC4)n3n2)n1 0.205%
COc1cc(OC)cc(C(=O)Nc2cc3c(cc2N2CCOCC2)n(C)c(=O)n3C)c1 2.35%
COc1ccc(-n2nc3cc(C)c(NC(=O)c4ccc(-c5ccc(Br)cc5)o4)cc3n2)cc1 6.58%
CC(=O)N1CCCc2cc(S(=O)(=O)N3CCCC(C(=O)Nc4ccc(C)cc4C)C3)ccc21 (stereo not drawn) 5.73%
CCc1ccc(S(=O)(=O)c2cn(C)c3cc(N4CCCC4)c(F)cc3c2=O)cc1 17.4%
COc1ccc(C(=O)Nc2ccc3c(c2)CCCN3S(=O)(=O)c2ccc(C)cc2)c(OC)c1 5.37%
CCOc1ccc(C(=O)NCCc2csc(-c3cccc(F)c3)n2)cc1OCC -3.62%
CCOC(=O)CC(NC(=O)CCc1c(C)nc2ncnn2c1C)c1ccc(C)cc1 (stereo not drawn) 15.8%

outcome, inactive:
COc1cc(OC)cc(C(=O)Nc2ccc(-c3nc4ccccc4s3)cc2C)c1
CCOC(=O)c1ccc(NC(=O)CCCn2c(=O)c3cccn3c3ccccc32)cc1
COc1ccccc1NC(=O)C1=C(C)Nc2nc(SCc3ccccc3)nn2C1c1cccc(O)c1 (stereo not drawn)
CCCCNC(=O)C(CC)Sc1nc2ccccc2c(=O)n1Cc1ccco1 (stereo not drawn)
COc1ccc(OC)c(NS(=O)(=O)c2ccc(-n3cccn3)cc2)c1
COc1ccc(NC(=O)c2nnn(Cc3nc(-c4cc(OC)c(OC)c(OC)c4)oc3C)c2C)cc1Cl
Cc1cc(C)n2nc(CNC(=O)c3c(F)cccc3F)nc2n1
Cc1ccc(C(=O)c2sc(Nc3ccccc3)c(S(=O)(=O)c3ccccc3)c2N)c(C)c1
CCC(C)n1c(=O)c2sccc2n2c(CCCC(=O)NCc3ccccc3Cl)nnc12 (stereo not drawn)
Cc1ccc(-c2cn3cccnc3n2)cc1NC(=O)Nc1ccc(F)cc1
Cc1cc(Cl)ccc1OCC(=O)N(Cc1sccc1C)C1CCS(=O)(=O)C1 (stereo not drawn)
CCN(CC)CCNC(=O)C(=O)NCC(c1ccc2c(c1)OCO2)N1CCOCC1 (stereo not drawn)
Cc1ccc(NC(=O)c2oc3ccccc3c2NC(=O)Cc2ccccc2)cc1
CCc1ccc(NC(=O)Cn2c(=O)n(CCCCC(=O)NCc3ccccc3Cl)c(=O)c3ccccc32)cc1
Cc1cc(C)c(S(=O)(=O)NCC(c2ccco2)N2CCOCC2)c(C)c1 (stereo not drawn)
CCn1c(=O)cc(OCC(=O)NCc2ccccc2OC)c2ccccc21
Cc1ccccc1Nc1nn2c(=O)c3ccc(C(=O)NCc4ccccc4)cc3nc2s1
C=CCC(CC=C)(CNC(=O)C(=O)Nc1ccc(C)cc1)c1ccccc1
CCN(CC)c1ccc(NC(=O)CN2CCN(c3ccccc3F)CC2)cc1
CCn1cc2nc(SCC(=O)Nc3ccc(C)cc3)n(Cc3ccc(C)cc3)c(=O)c2n1
